The values below come from the supplement of paper PMC6206098.

In one data set the test system is 3LL. Briefly: cell viability relative to siNT1 control; higher = less toxic. Particulars: concentration: 10 nM; 96 h; Mus musculus. As for the experimental part: (§1)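 Arrayed screen of 4096 siRNA duplexes, each carrying one of all possible 6mer seeds at guide-strand positions 2-7 in a fixed neutral 19mer scaffold (constant flanks: U at position 1, then ACAUGUAAACCA, plus a 3' AA overhang). The passenger strand is 2'-O-methylated at positions 1-2 so only the guide strand loads into RISC. Duplexes were reverse-transfected at 10 nM with RNAiMAX in triplicate in 384-well plates; viability was read by CellTiter-Glo ATP content 96 h after transfection. Values are % viability normalised to lipid-only wells (HeyA8, H460, M565) or to siNT1 (3LL).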

The next data set concerns H460. Briefly: cell viability relative to lipid-only control; HeyA8 human ovarian and H460 human lung cancer; M565 mouse liver and 3LL mouse lung cancer; siNT1 is a non-toxic control siRNA; higher = less toxic. To be noted: concentration: 10 nM; 96 h; Homo sapiens. The method, then:
as §1

The test system of a further data set is M565. Described as above. Particulars: concentration: 10 nM; 96 h; Mus musculus. The method, then: as §1
The subject of the next data set is HeyA8. The description is as above. To be noted: concentration: 10 nM; 96 h; Homo sapiens. As for the experimental part:
as §1

± gives the uncertainty stated by the source. The sequences are guide strands of siRNAs; only the seed at positions 2 to 7 varies.
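Throughout, for cell viability relative to siNT1 control: Luminescence-based viability of cells reverse transfected in 384-well plates with lipid-complexed siRNAs built on a non-toxic 19mer backbone whose passenger strand carries 2′-O-methyl groups at positions 1 and 2, triplicates.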

As for UAUCUCUACAUGUAAACCAAA, the cell viability (in general, a read-out of living cells in per cent, often relative to untreated cells) in the data set on 3LL was 64.6 ± 2.7%; with H460 it was 37.7 ± 3.2%; in the data set on M565 it was 40 ± 9.6%; in the data set on HeyA8, 56.8 ± 6.3%.

With UCUCCUUACAUGUAAACCAAA, the cell viability in the data set with 3LL is 91.2 ± 14%; with H460, 62.2 ± 12%; in the data set on M565, 53 ± 8.3%; with HeyA8, 75.1 ± 4.7%.

As for UGAUAACACAUGUAAACCAAA, the cell viability turned out to be 13.6 ± 7% with 3LL, 45.6 ± 4.4% in the data set on H460, 63.9 ± 14% in the data set on M565 and 33.7 ± 1.8% in the data set on HeyA8.

For the sequence UGCGCUGACAUGUAAACCAAA, the cell viability was found to be 81.7 ± 3.1% in the data set on 3LL, 64.9 ± 4% in the data set with H460, 56.9 ± 9.2% with M565 and 52.6 ± 8.4% with HeyA8.

On to UGUAAAGACAUGUAAACCAAA, for which the cell viability in the data set on 3LL is 97.3 ± 5%; with H460, 87.6 ± 6.4%; in the data set on M565, 78.9 ± 14%; in the data set on HeyA8, 91.7 ± 3.1%.

For the sequence UUGAUUUACAUGUAAACCAAA, the cell viability was determined as 83.8 ± 3.7% in the data set on 3LL, 65.2 ± 7.4% in the data set with H460, 95.5 ± 16% with M565 and 92.6 ± 6.6% in the data set on HeyA8.

For the sequence UGCUCGUACAUGUAAACCAAA, the cell viability in the data set on 3LL worked out at 54.4 ± 1.7%; with H460 it was 53.6 ± 2.6%; in the data set with M565, 50.9 ± 1.3%; in the data set on HeyA8 it was 26.4 ± 2.7%.

For UCAGGGGACAUGUAAACCAAA, the cell viability in the data set on 3LL worked out at 56.3 ± 10%; in the data set on H460, 34.3 ± 6.2%; with M565 it was 15.8 ± 5.1%; in the data set on HeyA8, 39.5 ± 2.5%.

Consider UCGUUCUACAUGUAAACCAAA, for which the cell viability was found to be 35.7 ± 8.9% in the data set with 3LL, 53.3 ± 1.7% in the data set with H460, 16.9 ± 2.4% in the data set on M565 and 19.5 ± 0.12% with HeyA8.

As to UACCCAAACAUGUAAACCAAA, the cell viability in the data set with 3LL turned out to be 68.6 ± 3.3%; in the data set on H460, 80.9 ± 11%; in the data set with M565, 29.2 ± 4.9%; with HeyA8, 65 ± 4.9%.

Consider UACAGGCACAUGUAAACCAAA, for which the cell viability with 3LL stood at 23.1 ± 5.7%; in the data set on H460 it was 14.8 ± 0.78%; in the data set on M565 it was 15.2 ± 5.2%; with HeyA8, 8.28 ± 0.66%.

As for UACGGACACAUGUAAACCAAA, the cell viability in the data set on 3LL stood at 70.5 ± 14%; in the data set with H460, 49.9 ± 4.6%; with M565, 46.5 ± 3.9%; in the data set with HeyA8, 19.7 ± 1.1%.

Consider UAUGCGAACAUGUAAACCAAA, for which the cell viability with 3LL is 107 ± 12%; in the data set with H460, 76.7 ± 3.1%; in the data set with M565, 90.4 ± 18%; in the data set with HeyA8, 99.7 ± 8.9%.

For the sequence UGUCAAGACAUGUAAACCAAA, the cell viability was 87 ± 13% with 3LL, 48.3 ± 8.2% in the data set with H460, 47.8 ± 7% in the data set on M565 and 90.6 ± 5.6% with HeyA8.

As to UGCAUGGACAUGUAAACCAAA, the cell viability in the data set with 3LL was 57.9 ± 16%; in the data set on H460 it was 53.8 ± 5.5%; in the data set with M565, 26.9 ± 2.6%; in the data set with HeyA8 it was 40.4 ± 4.9%.

UGGUAGAACAUGUAAACCAAA: the cell viability turned out to be 37.1 ± 3.8% in the data set with 3LL, 42.8 ± 1.4% in the data set with H460, 43.8 ± 7.3% in the data set on M565 and 65.7 ± 6.2% in the data set with HeyA8.

For the sequence UGCCAUUACAUGUAAACCAAA, the cell viability in the data set with 3LL came to 84.9 ± 10%; in the data set with H460, 56 ± 5.2%; in the data set on M565, 21.3 ± 2.7%; with HeyA8, 56.08 ± 0.52%.

As for UGGGGCUACAUGUAAACCAAA, the cell viability in the data set on 3LL is 9.58 ± 2.5%; in the data set on H460, 13 ± 1.2%; in the data set with M565 it was 17.8 ± 2.5%; in the data set with HeyA8 it was 1.39 ± 0.15%.

For UAAAACAACAUGUAAACCAAA, the cell viability is 101 ± 13% with 3LL, 68.9 ± 13% with H460, 111 ± 26% in the data set on M565 and 92.8 ± 7.2% in the data set on HeyA8.

For UACGCACACAUGUAAACCAAA, the cell viability in the data set with 3LL worked out at 62.9 ± 5.1%; in the data set on H460, 84.9 ± 18%; in the data set with M565 it was 47.8 ± 7.9%; with HeyA8, 68.9 ± 8.5%.

For the sequence UUAGGAGACAUGUAAACCAAA, the cell viability with 3LL was 71.2 ± 9%; in the data set on H460, 75 ± 2.3%; in the data set on M565 it was 83.7 ± 6%; in the data set with HeyA8 it was 82.4 ± 5%.

For UGACCGCACAUGUAAACCAAA, the cell viability was 30.4 ± 6.3% with 3LL, 56.1 ± 12% with H460, 4.85 ± 1.2% with M565 and 44.6 ± 6.5% in the data set with HeyA8.

Turning to UCAAUAUACAUGUAAACCAAA, the cell viability with 3LL was found to be 85.7 ± 11%; with H460, 70.2 ± 18%; in the data set on M565, 73.8 ± 12%; with HeyA8, 76.4 ± 14%.

UUAGUUCACAUGUAAACCAAA: the cell viability with 3LL came to 86.8 ± 12%; in the data set with H460, 38.1 ± 1.5%; with M565 it was 67.2 ± 11%; in the data set on HeyA8, 48.8 ± 7.8%.

Take UCAUUCUACAUGUAAACCAAA: the cell viability was 92.1 ± 13% in the data set with 3LL, 45.5 ± 3.4% in the data set on H460, 40.7 ± 6.3% with M565 and 83 ± 5% with HeyA8.

Regarding UUGUCCAACAUGUAAACCAAA, the cell viability with 3LL was determined as 66.7 ± 5.6%; in the data set on H460, 61.1 ± 8.5%; with M565, 45.5 ± 2.8%; with HeyA8, 87.4 ± 8.5%.

On to UGACCAGACAUGUAAACCAAA, for which the cell viability in the data set on 3LL came out at 16.1 ± 3.2%; in the data set with H460, 28.1 ± 3.4%; with M565, 6.74 ± 0.59%; in the data set on HeyA8 it was 28.7 ± 3.7%.
